In the RNAGym collection of RNA variant scans (doi:10.1073/pnas.2313332121):
Variants at the background level are over-represented here.

B1: TPR 5TU (parent)
chain: GGAUCUUCUCGAUCUAACAAAAAAGACAAAUCUGCCACAAAGCUUGAGAGCAUCUUCGGAUGCAGAGGCGGCAGCCUUCGGUGGCGCGAUAGCGCCAACGUUCUCAACUAUGACACGCAAAACGCGUGCUCCGUUGAAUGGAGUUUAUCAUG

Variants of: B1
Assay: polymerase ribozyme fitness, log enrichment relative to wild type (log ratio); higher = more active; in vitro selection for triplet polymerase activity
In short: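 Mutant libraries for each subunit of a heterodimeric triplet polymerase ribozyme were made by PCR and then transcribed. Each library underwent one round of in vitro selection in triplicate: annealing with a biotinylated primer, the partner subunit and triplets, frozen incubation at −7 °C, gel excision of extended constructs, streptavidin-bead capture and RT-PCR. Input and output libraries were Illumina-sequenced, and only genotypes with ≥10 input reads and ≥1 read per output were kept. Fitness is the logarithm, base 2, of genotype enrichment over wild-type enrichment, computed from inverse-variance-weighted replicate averages.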

Polymerase ribozyme fitness (log ratio), -4.08:
C79U C93U C95U

Polymerase ribozyme fitness (log ratio), -4:
G81A C131G G140C

Polymerase ribozyme fitness (log ratio), -2.27:
G80U C85A

Polymerase ribozyme fitness (log ratio), ≤ -4.2:
U78C C85A C93U G117A U145A C149U
U78C C93U U145A C149G
U78C G84U C99G A113U A115C G117U U135C U144A U148G
U78C G92C C105U A106G C114U U148G
U78C U109G A137C A147U
U78G A89U A106G C118U
U78G A91C C131G
U78G C114U C125A C149U
U78G G92U
U78G G117A
U78G U82G U148A
U78G U127A
C79A A137C
C79A C85U C93G
C79A C93G C95U U127G C131U G143U
C79A C99U U111A A147C
C79A G86U G88C C116U G141A
C79A U82C U145G
C79A U90G C95A C99U C118G A119U
C79G A91G A113U
C79G A91G G141C
C79G A98U C99U G133U
C79G A142C
C79G C93A C95A C125G C131U
C79G C93G
C79G C93U G136A
C79G C96U A138U
C79G C103G
C79G C125U A142C U148C U151G
C79G G81U G133A
C79G G86U G94A
C79G G88A G94A
C79G G88C C95U A98G A115G G136C A142U
C79G G124U U139C
C79U A91U C96U A98U A106G
C79U A91U C105G C108G A138G
C79U C85A
C79U C85A A89U A98U
C79U C87A
C79U C105G
C79U G83A C85A U148A
C79U G83C G84C C108U
C79U G84A C108A C114A C118A U139G
C79U G84U C149A
C79U G88A A91C
C79U U90A A106U
G80A A91G A106C C108U G133C
G80A C87A G133C
G80A C87U C108G
G80A G83U G124C U139C
G80A G84U U90G A106U G152U
G80C C85U C105G A121G U148A
G80C G86U G94C A137C
G80C G94A C96U A107G A147C
G80C G94U U134A
G80C G152U
G80U C95G C96A
G80U G81C G84U A89U A97U G100A G126U
G80U G84C C116G U148C
G80U U90A A138G

Polymerase ribozyme fitness (log ratio), -1.48:
G80A A89G G117U

Polymerase ribozyme fitness (log ratio), -3.91:
G80A U146G U148C

Polymerase ribozyme fitness (log ratio), 0.289:
G80A G124A

Polymerase ribozyme fitness (log ratio), -0.619:
G80A C85A

Polymerase ribozyme fitness (log ratio), -4.04:
G81A C87U G100U A115U C116U

Polymerase ribozyme fitness (log ratio), -1.44:
C79U G92U

Polymerase ribozyme fitness (log ratio), 0.102:
G81A C85A

Polymerase ribozyme fitness (log ratio), -0.333:
G80A G141A

Polymerase ribozyme fitness (log ratio), -3.86:
G81A C93G

Polymerase ribozyme fitness (log ratio), -4.16:
G80A A91C G94A

Polymerase ribozyme fitness (log ratio), -1.56:
G81A G86A

Polymerase ribozyme fitness (log ratio), -3.93:
G80C C85U A97C C99A G141U

Polymerase ribozyme fitness (log ratio), -4.11:
C79U C87U A113G

Polymerase ribozyme fitness (log ratio), -1.13:
G81A C103A

Polymerase ribozyme fitness (log ratio), -2:
G80A C87U A89C C99A A120U

Polymerase ribozyme fitness (log ratio), -1.94:
C79U C85U

Polymerase ribozyme fitness (log ratio), -2.42:
G81A A115U A142U

Polymerase ribozyme fitness (log ratio), -1.53:
G81A C87U A97U

Polymerase ribozyme fitness (log ratio), -0.393:
G80A G81A A120C

Polymerase ribozyme fitness (log ratio), 1.52:
G81A C105U

Polymerase ribozyme fitness (log ratio), -3.78:
C79A G83A
